According to PubChem BioAssay AID488969 (Vanderbilt High Throughput Screening Facility, 2010):
The full ranking holds about 110,000 compounds; the median of “z-score” is about -0.1, and the highest 2% start at about 2. This is one part of the list. Calls of active or inactive are those of the source.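 Rule for the calls: active = z-score in the third read window above 3 or below -3; inactive = the rest.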

target: Metabotropic glutamate receptor 8 (Rattus norvegicus) (UniProt P70579); experiment: mGluR8 Gi/Go-coupled signaling modulation – cell-based, rat, thallium flux, HTS, primary screen (AID 488969); conditions: HEK293 rat mGluR8, GIRK (G protein-gated inwardly rectifying potassium channel) thallium flux, FluoZin2; at 10 µM; stronger effect = higher value; submaximal glutamate (EC20) added with thallium
Chain of UniProt P70579 (P70579 whole entry, looked up): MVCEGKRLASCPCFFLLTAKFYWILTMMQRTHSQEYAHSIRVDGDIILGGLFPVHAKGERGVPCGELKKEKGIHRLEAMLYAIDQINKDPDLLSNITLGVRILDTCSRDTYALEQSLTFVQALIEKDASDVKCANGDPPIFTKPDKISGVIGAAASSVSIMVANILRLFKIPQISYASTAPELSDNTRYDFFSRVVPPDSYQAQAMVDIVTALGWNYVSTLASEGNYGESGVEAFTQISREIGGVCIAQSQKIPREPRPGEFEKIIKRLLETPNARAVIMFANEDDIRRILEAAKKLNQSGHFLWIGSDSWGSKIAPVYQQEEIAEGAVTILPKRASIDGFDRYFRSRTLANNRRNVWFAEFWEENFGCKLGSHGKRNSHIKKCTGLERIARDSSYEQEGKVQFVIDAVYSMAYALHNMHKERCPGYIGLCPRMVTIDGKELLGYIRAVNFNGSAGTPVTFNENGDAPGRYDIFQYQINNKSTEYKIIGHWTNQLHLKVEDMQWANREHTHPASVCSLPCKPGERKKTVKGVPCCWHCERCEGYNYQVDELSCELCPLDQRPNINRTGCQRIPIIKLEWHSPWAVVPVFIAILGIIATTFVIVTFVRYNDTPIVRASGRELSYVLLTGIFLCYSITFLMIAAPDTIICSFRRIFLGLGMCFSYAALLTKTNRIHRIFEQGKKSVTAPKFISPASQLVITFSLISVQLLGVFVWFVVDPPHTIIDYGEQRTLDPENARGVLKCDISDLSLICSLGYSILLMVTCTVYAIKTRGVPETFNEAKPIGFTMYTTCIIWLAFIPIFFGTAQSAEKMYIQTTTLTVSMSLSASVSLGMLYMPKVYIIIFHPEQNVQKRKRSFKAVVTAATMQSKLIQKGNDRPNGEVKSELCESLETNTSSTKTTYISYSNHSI

Compound	z-score
CCOC(=O)Nc1ccc(S(=O)(=O)NCCCN2CCOCC2)cc1	1.02
CC(Sc1ccc2c(c1)OCCO2)C(=O)Nc1ccc2c(c1)OCO2 (stereo unspecified)	-0.385
CCC(C)(C)NC(=O)C(c1cccn1C)N(C(=O)Cn1nnc2ccccc21)c1ccccc1OC (stereo unspecified)	-0.207
CCOC(=O)C(C)c1nn(C)c(=O)c2ccccc12 (stereo unspecified)	0.567
Cc1cccc(OCC(O)Cn2c(NCCCOC(C)C)nc3c2c(=O)[nH]c(=O)n3C)c1 (stereo unspecified)	-0.0818
CCOc1ccc(C(=O)NCc2ccccc2)cc1Br	-0.29
O=C(Nc1ccc([N+](=O)[O-])cn1)c1ccc(Br)o1	-0.0194
COc1ccccc1C(=O)OCC(=O)Nc1ccc(OC(F)F)cc1	-0.0664
C=C(C)CSc1nc(N)c2c3c(sc2n1)CCC3	0.465
Cc1ccc(-c2cc(C(F)F)n3ncc(C(=O)NCc4ccco4)c3n2)cc1	-0.697
COc1cccc(-c2nnc(SCC(=O)OC(C)C)n2N)c1	-0.0143
CCOc1ccccc1N1CCN(S(=O)(=O)c2cccc3nsnc23)CC1	-0.0744
C/C(=N\NC(=O)c1cccs1)C(C)(C)C	0.209
CC(C)C(=O)Nc1ccnc(-c2cccnc2)n1	-0.0191
COc1cc(OC)cc(C(=O)Nc2ccc(S(=O)(=O)Nc3cc(C)on3)cc2)c1	-1.5
CCn1c2ccccc2c2cc(NC(=O)c3cccc(OC)c3OC)ccc21	-0.305
CCCn1cnc2c(c1=O)c1nc3ccccc3nc1n2Cc1ccccc1OC	0.281
COc1cc(C2NC(=O)NC(C)=C2C(=O)OC2CCCCC2)cc(Br)c1O (stereo unspecified)	-0.193
C#CCn1c(=NC(=O)c2ccc(S(=O)(=O)N3CCCc4ccccc43)cc2)sc2cc(S(N)(=O)=O)ccc21	-0.41
O=C1C(Cc2ccccc2)SC(=Nc2ccccc2)N1c1ccccc1 (stereo unspecified)	-0.208
O=C(CCCSc1nc2ccccc2[nH]1)Nc1nnc(-c2ccccc2)o1	-0.854
COC(=O)CCCCCc1ccc(C(C)=O)s1	-0.208
N#CCSc1nnc(-c2cnccn2)n1Cc1ccccc1	0.184
CC1(C)Cc2c(C#N)c(SCC(=O)c3ccccc3)nc(N3CCCC3)c2CO1	0.225

Compound	z-score
CCOc1cc(/C=N/NC(=O)c2cccnc2)ccc1OCC(=O)N1CCOCC1	-0.431
O=C1CCC(C(=O)OCC(=O)N2N=C3/C(=C/c4ccccc4)CCCC3C2c2ccccc2)N1 (stereo unspecified)	0.101
Nc1nc(-c2ccccc2)c(N=Nc2ccccc2Cl)s1	-0.215
COc1ccc(NC(=S)N2C3CCC2CC(NC(=O)NC24CC5CC(CC(C5)C2)C4)C3)c(OC)c1 (stereo unspecified)	-0.164
CCc1cccc2c(SCC(=O)NCC3CCCO3)nc(-c3ccc(F)cc3)nc12 (stereo unspecified)	-0.298
CC(C)(C)C1=Nn2c(nnc2C2CCCCC2)SC1	-0.452
CCc1ccc(C(=O)COC(=O)c2ccc(-c3nnc(-c4ccccc4)o3)cc2)cc1	-0.195
CCCNC(=O)COC(=O)c1ccc(Cl)c(S(=O)(=O)N2CCCC2)c1	-0.409
CCN(CC)c1ccc(/C=C(/C#N)C(=O)NCc2ccccc2)o1	-0.849
O=C(C1CCCCC1)N1CCCc2ccccc21	-0.789
CCOc1ccc2c(c1)c(C(C)=O)c(C)n2-c1ccccc1	-1.1
CN1CCN(c2nc(-c3ccc(Br)cc3)nnc2-c2ccccc2)CC1	-0.829
COCc1nnc(NC(=O)CCN2C(=O)c3ccccc3C2=O)s1	0.12
O=C(c1ccc(Oc2ccc(C(F)(F)F)cn2)cc1)N1CCN(c2ccccc2)CC1	-0.631
Cc1cc(C)n2nc(SCc3nnc(SCc4ccccc4C)s3)nc2n1	-0.364
CC(=O)Nc1ccc(NC(=O)c2sc3nc4c(c(-c5ccc(C)cc5)c3c2N)CCC4)cc1	-0.131
COC(=O)CNC(=O)C(NC(=O)c1ccc(Cl)cc1)C(C)C (stereo unspecified)	-0.965
Cc1ccc(CNC(=O)CCOc2ccc(C(C)(C)C)cc2)cc1	-0.228
COc1cccc(CNC(=O)N[C@@H](CC(C)C)C(=O)O)c1	-0.225
CCc1nnc(SCC(=O)NC2CCCCC2)nc1CC	-0.297
Fc1ccc2nc(N3CCCCC3)sc2c1	-0.15
COc1ccc(N=Nc2nc3ccc(Br)cc3n2C)cc1	-0.114
CCOC(=O)N1CCN(S(=O)(=O)c2ccc(OCC)cc2)CC1	-0.0455
CCOC(=O)c1cnc2ccc(Br)cc2c1NCCO	0.836

Compound	z-score
CSCCC(NS(=O)(=O)c1ccccc1F)C(=O)OCc1ccccc1Cl (stereo unspecified)	-1.46
Cc1ccc(Cl)cc1NC(=O)c1ccccc1OCC(=O)Nc1ccc(Cl)cc1	0.163
CCOC(=O)c1ccc[n+](CC(=O)c2ccccc2)c1	-0.134
COC(=O)C1=C(C)N(C)C(=O)NC1c1ccc(C)cc1 (stereo unspecified)	-0.0358
CCCCc1nnc(NC(=O)C(C)Sc2nc(C)cc(=O)[nH]2)s1 (stereo unspecified)	-0.337
CCOC(=O)N1CCC(NC(=O)CCC(=O)N2CCOc3ccc(C)cc32)CC1	-0.724
CC1(C)CC(=O)c2sc(N)nc2C1	-0.129
CNC(=O)/C(C#N)=C/c1c(F)cccc1Cl	-0.361
O=C1CC(N2CCCCCC2)C(=O)N1c1ccc2c(c1)OCO2 (stereo unspecified)	0.0652
CCOC(=O)c1cc2n(c1/N=C/N(C)C)-c1ccccc1C2=O	-0.437
CC(=O)c1ccc(NC(=O)CSc2nnc(-c3ccoc3C)n2Cc2ccccc2)cc1	-0.586
Cc1ccc2nc(NC(=O)COC(=O)c3ccc(Br)o3)sc2c1	-0.114
COc1ccc(CCNS(=O)(=O)c2cccc(C(=O)O)c2)cc1OC	-0.0663
C=CCn1c(=S)[nH]c2ccccc2c1=O	active: 13.6
COC(=O)c1c(-c2cccs2)csc1NC(=O)CSc1ncnc2sc(C)c(C)c12	-0.00287
CCCC(=O)C1=C(O)C(C(=O)OC)C(C)(C)CC1=Nc1ccccc1 (stereo unspecified)	-0.891
O=C(N/N=C/c1cc(Br)ccc1O)Nc1ccccc1	0.2
c1ccc(Cn2ccc(-c3cnc(-c4ccccc4)s3)n2)cc1	-0.513
CCOC(=O)c1c(C)[nH]c(C)c1C(=O)CSc1ncccn1	0.177
Cc1c(C(=O)OCC(=O)N(CCC#N)c2ccccc2)oc2c1ccc1ccccc12	0.501
COc1ccc2cc(-c3cc(C(=O)OCC(=O)NC4CCS(=O)(=O)C4)c4ccccc4n3)ccc2c1 (stereo unspecified)	-0.0649
CCOC(=O)Cn1c(CCC(=O)O)ccc1-c1ccc(F)cc1	-0.273
COc1cccc(NC(=O)C2CC2(c2cccc(OC)c2)c2cccc(OC)c2)c1 (stereo unspecified)	-0.0635
